Data on 2 compounds can be found in PubChem BioAssay (NCI).

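Following 48 hours of exposure in 96-well plates, responses at five concentrations were used to interpolate endpoints linearly. Here, GI50 denotes the concentration required for 50% inhibition of growth. Definition used: TGI = concentration required for complete inhibition of growth.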

The subject of this experiment is NCI-H322M lung. The experiment can be described thus: growth of human tumour cells (NCI), 48 h.

With `O=C1Nc2ccc(F)cc2/C1=C/c1cccc(OCc2ccccc2)c1`, the GI50 is 14.6 µM and the TGI came out at 35.4 µM.
For `O=C(NCCCCC(c1ccc(F)cc1)c1ccc(F)cc1)NCCCc1cccnc1`, the GI50 was 13.9 µM and the TGI was 29.8 µM.
